According to PubChem BioAssay:
This list was built around the results that the source calls inconclusive (neither active nor inactive); the mix of calls is not that of the screen. The source made the active and inactive calls.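 How the source made its calls, unless noted: active means thallium flux slope above the same plate's solvent-only control mean plus 3 SD; inconclusive means the two replicate wells disagree; inactive means no significant difference from solvent-only control wells.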

How the values were obtained:
[1] = FluoZin2 fluorescence counter-screen of MLSMR hits on KCC2-expressing cells (AID 1714;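 active means thallium entry rate above the same plate's blocked-transporter control wells by more than 3 SD; inconclusive means the two repeat wells disagree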;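 further: raw slope of fluorescence over initial fluorescence between 10 and 20 s after thallium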); details: HEK293-KCC2 + bumetanide/ouabain, at 10 µM, stronger effect = higher value
Summary of the method: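 Assay system: HEK cells expressing the K-Cl cotransporter KCC2; buffer or medium: HBSS-HEPES plus ouabain 0.2 mM, bumetanide 2 mM; reagent: thallium stimulus; compound dosing: 10 µM single dose; timing: 48 min dye loading; signal: FluoZin2-AM (0.5 µM) fluorescence, 480 nm ex/540 nm em, 1 Hz kinetic imaging; replication: duplicates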

[2] = target: Solute carrier family 12 member 5 (Homo sapiens) (UniProt Q9H2X9); experiment: retest of KCC2 transport modulators without sodium – cell-based, HEK293 KCC2, thallium flux, secondary assay, confirmation (AID 1713); details: FluoZin2 fluorescence, at 10 µM, stronger effect = higher value
Summary of the method: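 System: HEK cells expressing human KCC2 cotransporter; Buffer or medium: Na-free NMDG-Cl buffer; Also added: thallium sulfate stimulus buffer at pH 7.3; Dosing: 10 µM single dose, 0.1% DMSO; Timing: 48 min dye loading; Measured by: kinetic FluoZin2 fluorescence at 1 Hz, ex 480/em 540 nm; Read-out: baseline-normalized fluorescence slope, 10–20 s post-Tl+.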

[3] = native HEK Tl+ uptake effects, second counter-screen – HEK cells, counterscreen 2, counter-screen for KCC2 modulator project, confirmation (AID 1718;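 active means thallium flux slope above the same plate's solvent-control mean plus 3 SD in both duplicate wells; inconclusive means duplicate wells that disagreed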;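 further: run without ouabain in cells lacking the KCC2 cotransporter; slope of fluorescence scaled to its starting value between 10 and 20 s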); details: HEK293 parental, thallium flux FluoZin-2 fluorescence slope; at 10 µM
Summary of the method: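 Test system: parental HEK cells / Reagent: thallium sulfate stimulus, 12 mM in buffer, pH 7.3 / Compound: single 10 µM final compound dose, 0.1% DMSO / Timing: overnight cell culture at 37 °C, 48 min dye loading, compound before thallium / Detection: FluoZin-2 fluorescence kinetics / Read-out: rate of F/F0 rise, 10–20 s after thallium addition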

Sequence of UniProt Q9H2X9 (Q9H2X9 whole entry, looked up): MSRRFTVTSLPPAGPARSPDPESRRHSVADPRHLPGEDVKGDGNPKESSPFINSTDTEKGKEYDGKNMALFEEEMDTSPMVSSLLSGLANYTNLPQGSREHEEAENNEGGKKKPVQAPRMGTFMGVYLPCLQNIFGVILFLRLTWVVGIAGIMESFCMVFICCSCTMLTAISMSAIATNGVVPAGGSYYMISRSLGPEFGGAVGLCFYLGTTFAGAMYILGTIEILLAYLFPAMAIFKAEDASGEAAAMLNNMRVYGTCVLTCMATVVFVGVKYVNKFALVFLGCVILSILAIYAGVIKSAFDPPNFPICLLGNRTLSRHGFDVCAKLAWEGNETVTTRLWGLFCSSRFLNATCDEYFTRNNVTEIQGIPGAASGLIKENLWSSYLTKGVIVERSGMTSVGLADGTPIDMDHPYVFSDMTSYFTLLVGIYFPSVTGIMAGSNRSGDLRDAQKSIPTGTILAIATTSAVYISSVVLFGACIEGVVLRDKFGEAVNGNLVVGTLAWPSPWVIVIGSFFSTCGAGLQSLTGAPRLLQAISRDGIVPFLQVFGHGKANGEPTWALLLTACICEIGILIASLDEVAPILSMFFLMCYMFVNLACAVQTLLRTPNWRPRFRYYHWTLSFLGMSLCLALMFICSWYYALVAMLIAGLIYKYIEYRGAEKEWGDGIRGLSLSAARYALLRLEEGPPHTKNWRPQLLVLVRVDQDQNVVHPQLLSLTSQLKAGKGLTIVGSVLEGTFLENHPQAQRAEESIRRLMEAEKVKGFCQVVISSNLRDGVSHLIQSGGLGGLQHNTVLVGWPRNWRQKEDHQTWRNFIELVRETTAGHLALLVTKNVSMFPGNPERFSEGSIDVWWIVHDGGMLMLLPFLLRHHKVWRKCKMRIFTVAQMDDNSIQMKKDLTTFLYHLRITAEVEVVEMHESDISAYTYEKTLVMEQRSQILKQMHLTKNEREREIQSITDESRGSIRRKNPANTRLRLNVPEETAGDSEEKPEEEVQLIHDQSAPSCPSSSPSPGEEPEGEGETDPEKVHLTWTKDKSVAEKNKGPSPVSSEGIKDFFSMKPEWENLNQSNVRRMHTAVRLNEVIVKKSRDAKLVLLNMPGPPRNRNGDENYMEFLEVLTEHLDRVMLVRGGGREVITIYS

## COc1ccc(Oc2c(Cl)cnn(-c3ccc(F)cc3)c2=O)cc1
[1]
  normalized thallium flux: inconclusive: 0.00731

## CC1CC(C)CN(S(=O)(=O)c2ccc(C(=O)Nc3nnc(-c4cccs4)o3)cc2)C1 (stereo not drawn)
[1]
  normalized thallium flux: active: 0.0321

## CCOC(=O)c1[nH]c(C=O)c(C(=O)OCC)c1C
[2]
  normalised thallium flux (F/F0 slope): inactive: 0.00591
[3]
  thallium flux slope: active: 0.0306

## CCCn1c(=S)[nH]c2ccccc2c1=O
[2]
  normalised thallium flux (F/F0 slope): inconclusive: 0.00966
[3]
  thallium flux slope: active: 0.0884

## CCOCCCn1c(=S)[nH]c2cc3c(cc2c1=O)OCO3
[2]
  normalised thallium flux (F/F0 slope): inconclusive: 0.0113
[3]
  thallium flux slope: inconclusive: 0.012

## O=C(CCNS(=O)(=O)c1cccc2nonc12)NCCc1ccc(Cl)cc1
[2]
  normalised thallium flux (F/F0 slope): inconclusive: 0.00689
[3]
  thallium flux slope: inactive: 0.00951

## O=C(Nc1nc2c(Cl)cccc2s1)c1ccc(Br)o1
[2]
  normalised thallium flux (F/F0 slope): inconclusive: 0.0126
[3]
  thallium flux slope: active: 0.0136

## COc1ccccc1C(=O)NNC(=O)c1sccc1-n1cccc1
[2]
  normalised thallium flux (F/F0 slope): inconclusive: 0.00743
[3]
  thallium flux slope: active: 0.0396

## CCOc1ccc(/C=N/n2cc(-c3ccccc3)[nH]c2=S)cc1
[2]
  normalised thallium flux (F/F0 slope): inconclusive: 0.0107
[3]
  thallium flux slope: active: 0.0123

## Cc1nc2cc(C(=O)N3c4ccccc4CC3C)ccc2s1 (stereo not drawn)
[2]
  normalised thallium flux (F/F0 slope): inconclusive: 0.0063
[3]
  thallium flux slope: inconclusive: 0.0103

## N#Cc1nc(COc2ccccc2F)oc1NCCc1ccccc1
[1]
  normalized thallium flux: inconclusive: 0.00366

## C/C(=N\NC(=S)NC(C)C)c1ccccc1
[2]
  normalised thallium flux (F/F0 slope): inconclusive: 0.0123
[3]
  thallium flux slope: inconclusive: 0.0107

## Cc1ccc(O)c(C(=O)CC(=O)c2ccccc2Cl)c1
[2]
  normalised thallium flux (F/F0 slope): inconclusive: 0.0106
[3]
  thallium flux slope: active: 0.0123

## O=C(CSc1ccc(-c2ccc(F)cc2)nn1)N1CCCCC1
[1]
  normalized thallium flux: inactive: 0.005

## Cc1cc(C(=O)COC(=O)CCc2nc3ccccc3s2)c(C)n1C
[1]
  normalized thallium flux: inconclusive: 0.00511

## O=C(O)CCSc1ncnc2sc(-c3ccccc3)cc12
[2]
  normalised thallium flux (F/F0 slope): inconclusive: 0.0089
[3]
  thallium flux slope: active: 0.033

## O=C(NC(=S)Nc1ccc2c(c1)OCCO2)c1cccc2ccccc12
[2]
  normalised thallium flux (F/F0 slope): inconclusive: 0.0117
[3]
  thallium flux slope: active: 0.0157

## O=C(NC(=S)Nc1ccccc1)c1cncc(C#Cc2ccccc2)c1
[2]
  normalised thallium flux (F/F0 slope): inconclusive: 0.0113
[3]
  thallium flux slope: inconclusive: 0.0105

## Cc1ccc(C)c(Cn2nnc3c(=O)[nH]c(C(=O)NCc4ccco4)nc32)c1
[2]
  normalised thallium flux (F/F0 slope): inactive: 0.00502
[3]
  thallium flux slope: inconclusive: 0.0088

## C/C(=N\NC(=O)c1ccncc1)c1cc2ccccc2o1
[2]
  normalised thallium flux (F/F0 slope): inconclusive: 0.0134
[3]
  thallium flux slope: inconclusive: 0.013

## CCOc1ccc2nc(NC(=O)c3ccccn3)sc2c1
[2]
  normalised thallium flux (F/F0 slope): inconclusive: 0.0117
[3]
  thallium flux slope: inconclusive: 0.0106

## O=C(Nc1ccc(Nc2ccccc2)cc1)c1ccc(Br)o1
[2]
  normalised thallium flux (F/F0 slope): inconclusive: 0.00541
[3]
  thallium flux slope: inconclusive: 0.00971

## CC(Sc1nnnn1-c1ccccc1)C(=O)Nc1ccc(Cl)cn1 (stereo not drawn)
[2]
  normalised thallium flux (F/F0 slope): inactive: 0.00726
[3]
  thallium flux slope: inconclusive: 0.0091

## COC(=O)c1[nH]c2ccc(C)cc2c1NS(=O)(=O)c1ccc(F)c(C)c1
[1]
  normalized thallium flux: inconclusive: 0.00791

## Cc1ccc(C)c(N=Nc2ccc(O)c3ncccc23)c1
[2]
  normalised thallium flux (F/F0 slope): inconclusive: 0.0104
[3]
  thallium flux slope: inconclusive: 0.00993

## CCn1c(-c2cc(-c3ccc(C)cc3)nc3ccccc23)n[nH]c1=S
[2]
  normalised thallium flux (F/F0 slope): inconclusive: 0.00518
[3]
  thallium flux slope: active: 0.0175

## COC(=O)c1cnn(-c2ccc(F)cc2F)c1/C=N/NC(=S)NC(C)(C)C
[2]
  normalised thallium flux (F/F0 slope): inactive: 0.0109
[3]
  thallium flux slope: inconclusive: 0.0108

## COc1ccc(CCNC(=S)NC(=O)c2cccc(Cl)c2)cc1OC
[2]
  normalised thallium flux (F/F0 slope): inactive: 0.01
[3]
  thallium flux slope: inconclusive: 0.0111

## COc1ccc(OC)c(C(=O)COC(=O)c2ccccc2O)c1
[2]
  normalised thallium flux (F/F0 slope): inactive: 0.00632
[3]
  thallium flux slope: inconclusive: 0.0107

## COc1ccc(-c2cc(C(=O)N3CCN(Cc4ccccc4)CC3)no2)cc1OC
[1]
  normalized thallium flux: inconclusive: 0.00532

## O=C(NC(=S)Nc1nc2ccc(F)cc2s1)c1ccco1
[2]
  normalised thallium flux (F/F0 slope): inconclusive: 0.00966
[3]
  thallium flux slope: active: 0.0886

## O=c1c2ccccc2[nH]c(=S)n1CCC1=CCCCC1
[2]
  normalised thallium flux (F/F0 slope): inconclusive: 0.0188
[3]
  thallium flux slope: active: 0.0261

## N#Cc1c(-c2ccc(Cl)cc2)c2c([nH]c1=S)CCCC2
[2]
  normalised thallium flux (F/F0 slope): inconclusive: 0.019
[3]
  thallium flux slope: active: 0.0192

## CN(C)c1ccc(/C=C/c2ccncc2)cc1
[2]
  normalised thallium flux (F/F0 slope): active: 0.0032
[3]
  thallium flux slope: inconclusive: 0.00874

## O=[N+]([O-])c1c(NCCO)cc(Sc2nc3ccccc3s2)c2nonc12
[2]
  normalised thallium flux (F/F0 slope): active: 0.0147
[3]
  thallium flux slope: active: 0.0128
